In assay [1] the target is T1, human BCMA on cells (human, UniProt Q02223 1-184).
T1 construct: whole, on cells; also called H929 cells; U266 cells
T1 sequence (looked up): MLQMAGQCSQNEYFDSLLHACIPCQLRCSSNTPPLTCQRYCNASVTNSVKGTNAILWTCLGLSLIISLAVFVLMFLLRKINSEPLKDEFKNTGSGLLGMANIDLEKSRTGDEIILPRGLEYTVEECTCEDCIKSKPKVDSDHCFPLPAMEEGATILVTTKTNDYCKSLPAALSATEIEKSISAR
The assay is described as follows: FACS, U266 cells. Here is the method:
The desired cells were scale-up cultured in T-75 cell culture flasks to the logarithmic growth phase, and the cells were pipetted into a single cell suspension. After the cells were counted, the cells were centrifuged and the cell pellet was resuspended in FACS buffer (PBS+2% fetal calf serum) to 2×10⁶ cells per ml, and the suspension was added to the 96-well FACS reaction plate at 50 μl per well, then the sample to be tested of the chimeric antibody was added at 50 μl per well and the mixture was incubated at 4° C. for 1 h. The obtained mixture was centrifuged and washed 3 times with a PBS buffer. […] The obtained mixture was centrifuged and washed 3 times with a PBS buffer. 100 μl of the mixture was taken for detection and result analysis by FACS (FACS Canto™, purchased from BD Company). Data analysis was performed by software (FlowJo) to obtain the mean fluorescence intensity (MFI) of the cells. Then, a software (GraphPad Prism8) was used for analysis, data fitting and EC50 calculation. The results are shown in Table 10 and FIGS. 10A-10B, FIGS. 11A-11B, and FIGS. 12A-12B. All seven chimeric antibodies bind to three types of BCMA-expressing endogenous cells.

The target in assay [2] is T2, monkey BCMA-His protein (monkey, UniProt A0A2K5UD97 1-53).
T2 construct: bought; monkey species not further stated for this product; also called monkey BCMA protein
The assay is described as follows: ELISA, monkey BCMA-His coated; Ab 10 nM. As to the method: (§1) The specific method was as follows: Human BCMA protein (purchased from Acro, catalog number: BCA-H522y) and monkey BCMA protein (purchased from Acro, catalog number: BCA-C52H7) were diluted with PBS to a final concentration of 1 μg/mL, respectively, and then added to a 96-well ELISA plate at 50 μl/well. The plate was sealed with a plastic film and incubated overnight at 4° C., the plate was washed twice with PBS the next day, and then a blocking solution [PBS+2% (w/v) BSA] was added for blocking at room temperature for 2 h. The blocking solution was discarded, the plate was washed 3 times with PBS, and 100 nM BCMA human-mouse chimeric antibody diluted gradiently or control antibody was added at 50 μl/well. After incubation at 37° C. for 2 h, the plate was washed 3 times with PBS. HRP (horseradish peroxidase)-labeled secondary antibody (purchased from Merck, catalog number: AP113P) was added, and incubated at 37° C. for 1 h, and the plate was washed 5 times with PBS. TMB substrate was added at 50 μl/well, and incubated at room temperature for 10 min, then a stop solution (1.0 M HCl) was added at 50 μl/well. The OD450 nm values were read by an ELISA microplate reader (Multimode Plate Reader, EnSight, purchased from Perkin Elmer). The results are shown in Table 7, Table 8 and FIGS. 7A-7B and FIG. 8A-8B. All chimeric antibodies have good binding activity with human BCMA protein; except that BCMA-mAb06 has no cross-binding activity with monkey BCMA protein and BCMA-mAb07 has weak binding to monkey BCMA protein, other chimeric antibodies have good binding activity with monkey BCMA protein. The IgG subtype control is human IgG1.
Background: ELISA stands for enzyme-linked immunosorbent assay.

Assay [3] addresses T3, human BCMA-His protein (human, UniProt Q02223 1-54).
T3 construct: bought; also called human BCMA protein; not shown: His tag
T3 sequence (looked up): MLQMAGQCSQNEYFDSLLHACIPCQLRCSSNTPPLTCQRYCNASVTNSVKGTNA
Put plainly: ELISA, human BCMA-His coated; Ab 0.01 nM. As to the method: as §1

Assay [4] addresses T2, monkey BCMA-His protein. Put plainly: ELISA, monkey BCMA-His coated; Ab 0.1 nM. As to the method:
as §1

The target in assay [5] is T2, monkey BCMA-His protein. Put plainly: ELISA, monkey BCMA-His coated; Ab 0.01 nM. As to the method: as §1
Assay [6] has as its target T1, human BCMA on cells. The assay is described as follows: cell ELISA, Flp-inCHO-human BCMA cells; Ab 0.05 nM. The source says: (§2) The specific method was as follows: The required cells were scale-up cultured in a T-75 cell culture flask to the logarithmic growth phase, the medium was aspirated, the cells were washed twice with a PBS buffer, and then digested with trypsin. Then the digestion was terminated with a complete medium, and the cells were pipetted to obtain a single cell suspension. After the cells were counted and centrifuged, the cell precipitate was resuspended to 4×10⁵ cells per milliliter with a complete medium, and the suspension was added to a 96-well flat-bottomed cell culture plate at 100 μl/well, and cultured overnight in a 37° C., 5% carbon dioxide incubator. On the next day, the medium in the 96-well plate was discarded, the cells were washed once with PBS, and then fixed at room temperature for 0.5 h with an immunostaining fixative (purchased from Beyotime, catalog number: P0098-500 ml) at 50 μl/well. A blocking solution [PBS+5% (w/v) skim milk] was added for blocking at room temperature for 2 h. The blocking solution was discarded, the plate was washed 3 times with PBS, and 100 nM BCMA human-mouse chimeric antibody diluted gradiently or control antibody was added at 50 μl/well. After incubation at 37° C. for 2 h, the plate was washed 3 times with PBS. HRP (horseradish peroxidase)-labeled secondary antibody (purchased from Merck, catalog number: AP113P) was added, and incubated at 37° C. for 1 h, and the plate was washed 5 times with PBS. TMB substrate was added at 50 μl/well, and incubated at room temperature for 10 min, then a stop solution (1.0 M HCl) was added at 50 μl/well. The OD450 nm values were read by an ELISA microplate reader (Multimode Plate Reader, EnSight, purchased from Perkin Elmer). The chimeric antibodies bind well to Flp-inCHO-human BCMA cells. The IgG subtype control is human IgG1.

Assay [7] has as its target T1, human BCMA on cells. The assay is described as follows: cell ELISA, Flp-inCHO-human BCMA cells; Ab 3.70 nM.
Excerpt: as §2

Assay [8] has as its target T1, human BCMA on cells. The assay is described as follows: cell ELISA, Flp-inCHO-human BCMA cells; Ab 11.11 nM.
Excerpt: as §2

Assay [9] concerns the target T1, human BCMA on cells. The assay is described as follows: cell ELISA, Flp-inCHO-human BCMA cells; Ab 33.33 nM.
Excerpt: as §2

T2 sequence (A0A2K5UD97 entry or part of it limits assumed): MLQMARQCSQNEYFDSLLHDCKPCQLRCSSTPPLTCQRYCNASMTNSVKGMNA

B1: BCMA-mAb02 (Fc fusion)
scFv: EVQLVESGGDLVQPGESLKLSCESNAYEFPSYDMSWVRKTPEKRLELVAAINSDGGITYYPDTMERRFIISRDNTKKTLYLQMSSLRSEDTALYYCARHGYGGGAYVLDYWGQGTSVTVSSGGGGSGGGGSGGGGSDIVMTQSQKFMSTTVGDRVRITCKASQNVGTAVAWYQQKPGQSPKVLIYSASSRYTGVPDRFTGSGSGTDFTLTINNMQSEDLADYFCQQYSNYHLTFGTGTKLELK[human IgG1 Fc with C220S (EU numbers) not spelt out]
The term EC50 denotes the concentration giving half of the maximal effect. B1: the EC50 in [1] was found to be 8.51 nM. Moreover, in assay [1], the “Maximum mean fluorescence intensity” value was found to be 3720. The OD450 in assay [2] was found to be 2.55; in assay [3], 0.06; in assay [4], 0.28; in [5] it was 0.08; in assay [6] it was 0.18; in [7], 0.91. Further, the OD450 in [8] was found to be 1.06; in assay [9], 1.11.

B2: BCMA-mAb05 (Fc fusion)
scFv: QGQMQQSDAELVKPGASVQISCKASGYMFTDHTFHWMRQRPEQGLEWIGYIYPRDDNTKYNEKFKGKATLTADKSSSTAYIHLNSLTSEDSAVYFCARAGYYGSSHAMDYWGQGTSVTVSSGGGGSGGGGSGGGGSDIVMTQSHKFMSTSVGDRVSITCKASQDVSTAVAWYQQKPGQSPRLLIYSASSRYTGVPDRFTGSGSGTDFTFTISSVQTEDLAVYYCQQLYSTPWTFGGGTKLEIK[human IgG1 Fc with C220S (EU numbers) not spelt out]
As to B2, the EC50 in [1] was 16 nM. The “Maximum mean fluorescence intensity” value in [1] was 3760. In addition, the OD450 turned out to be 2.71 in assay [2]; 0.31 in [3]; 0.43 in assay [4]; 0.1 in assay [5]; 0.22 in [6]; 1.01 in assay [7]. The results for the OD450 in [8] and in assay [9] were 1.17 and 1.24, respectively.

B3: BCMA-mAb07 (Fc fusion)
scFv: QVQLQQSGAELAKPGASVKLSCKASGYTFTDYWTHWVKQRPGQGLEWIGYINHGSGYTKYNQKFKDKATLTADKSSSTAYMQVSSLTYEDSAVYYCARLTGSYYFDYWGQGTTLTVSSGGGGSGGGGSGGGGSQIVLTQSPAIMSASPGEKVTMTCSASSSVSYMHWYQQKSGTSPKRWIYDTSKLASGVPPRFSGSGSGTSYSLTISSMEAEDAATYYCQQWSSNPLTFGAGTKLELK[human IgG1 Fc with C220S (EU numbers) not spelt out]
In assay [1], B3 registered a 50% effective concentration (EC50) of 11.3 nM. Moreover, the “Maximum mean fluorescence intensity” value in [1] is 4180. The OD450 in assay [3] turned out to be 0.43; in assay [6] it was 0.19; in [7], 0.73; in assay [8], 1.01; in assay [9], 0.84.

B4: BCMA-mAb01 (Fc fusion)
scFv: EVKLVESGGGLVQPGGSLKLSCAASGFTFSDFYMYWVRQTPEKRLEWVAYITNGGENTYFPDTVKGRFTISRDNAKNTLYLQMSRLKSEDTAMYYCARQNPFYYYDSNYDYAMDFWGQGTSVTVSSGGGGSGGGGSGGGGSDVVMTQTPLTLSVTIGQPASISCKSSQSLLYSNGKTYLSWLFQRPGQSPKRLIYLVSELDSGVPDRFTGSGSGTDFTLKISRVEAEDLGIYYCVQGTHFPHTFGGGTKLEIK[human IgG1 Fc with C220S (EU numbers) not spelt out]
In the case of B4, in assay [1], the midpoint of the response, the EC50, lay at 5.46 nM. Moreover, the “Maximum mean fluorescence intensity” value in assay [1] is 3500. Besides, the OD450 turned out to be 2.6 in assay [2]; 0.1 in assay [3]; 0.82 in [4]; 0.19 in assay [5]; 0.22 in assay [6]; 0.86 in assay [7]. Further, the OD450 in [8] turned out to be 0.9; in assay [9], 1.05.

B5: BCMA-mAb03 (Fc fusion)
scFv: QIPLVQSGPELKKPGETVKISCKASGYTFTNYAMTWVKQAPGKGLKWMGWIDTYSGVPTYADDFKGRFAFSLETSATTAYLQINNLKNEDTATYFCARVGVYGGYDTLDSWGQGTSVTVSSGGGGSGGGGSGGGGSDIQMTQTTSSLSASLGDRVTISCSASQGISNHLNWYQQKPDGTVKLLIYYTSSLHSGVPSRFSGSGSGTDYSLTISNLEPEDFATYYCQQYNNLPWTFGGGTKLEIK[human IgG1 Fc with C220S (EU numbers) not spelt out]
Regarding B5, the EC50 in assay [1] is 20.5 nM. In addition, the “Maximum mean fluorescence intensity” value in assay [1] came out at 3070. The OD450 in assay [2] came out at 2.58; in assay [3], 0.09; in assay [4] it was 0.55; in assay [5], 0.19; in assay [6], 0.19; in assay [7], 0.73. Further, the values for the OD450 in [8] and in assay [9] were 0.87 and 1.07, respectively.

B6: BCMA-mAb04 (Fc fusion)
scFv: QVQLQQSGAELARPGASVDLSCKASGYSFTSYGISWVKLRTGQGLEWIGEIYPRDDITYYNEKFKGKTTLTADKSSSTAYMELRSLTSEDSAVYFCARHDYYYVNSVSAMDYWGQGTSVTVSSGGGGSGGGGSGGGGSDIVMSQSPSSLAVSVGEKVTMSCKSSQSLLYSSNQKNYLAWYQQKPGQSPKLLIYWASTRYSGVPDRFTGSGSGTDFTLTVSSVRAEDLALYYCQQYYIYPWTFGGGTKLEIK[human IgG1 Fc with C220S (EU numbers) not spelt out]
For B6, in assay [1], the EC50 came to 32.2 nM. Further, in assay [1], the “Maximum mean fluorescence intensity” value amounted to 2850. In addition, the OD450 came to 2.66 in [2]; 0.11 in [3]; 0.68 in [4]; 0.27 in assay [5]; 0.18 in [6]; 0.81 in assay [7]. For the same molecule, the OD450 in [8] amounted to 0.94; in assay [9], 1.09.
